# Test results published in the supplement of paper PMC4166925.
# ± gives the standard deviation of the averaged measurements. Over roughly 33,000 sequences, “E-score (dimensionless, -0.5 to 0.5)” has its median near -0.049; the highest 2% begin near 0.37. Some of the results follow.
# Test system: T1, PmTbr T-box DNA-binding domain (GST fusion)
# T1 sequence: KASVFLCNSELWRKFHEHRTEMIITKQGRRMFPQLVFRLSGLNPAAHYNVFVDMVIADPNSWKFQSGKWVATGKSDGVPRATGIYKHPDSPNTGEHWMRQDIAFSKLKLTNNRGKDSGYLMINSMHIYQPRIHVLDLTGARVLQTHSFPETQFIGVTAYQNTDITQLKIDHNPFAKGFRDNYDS
# Assay: PBM E-score of 8-mer (E-score (dimensionless, -0.5 to 0.5)); Tbr is Tbrain of the sea star Patiria miniata (Pm) or the sea urchin Strongylocentrotus purpuratus (Sp); higher = stronger binding preference; most listed sequences are background and not binding sites
# Conditions: the construct has about 5 more residues each side
# How it was run: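 Using the Universal PBM Analysis Suite, every ungapped 8-mer received an enrichment E-score averaged over duplicate arrays. Probe intensities came from double-stranded Universal Agilent oligonucleotide arrays incubated with 200 nM GST-fused Tbr T-box DNA-binding domain in PBS (pH 7.5). That protein was expressed in BL21 E. coli at 20 °C and purified by glutathione affinity chromatography.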
row,Sequence,PBM E-score of 8-mer
1,CCTCCGAA,-0.0356 ± 0.0086
2,GAACAGGC,-0.135 ± 0.075
3,AATACCTG,0.0448 ± 0.035
4,ACTCGCTA,0.282 ± 0.022
5,GCACTTCC,0.365 ± 0.021
6,AATGAGGC,-0.112 ± 0.082
7,GCAATCAC,0.0766 ± 0.03
8,ATTCCCAC,0.199 ± 0.014
9,AAAGGCGG,-0.0183 ± 0.038
10,TAGGCAAA,-0.0377 ± 0.012
11,ACATTTAA,-0.00963 ± 0.13
12,GCCCGCAC,0.0136 ± 0.025
13,ACGATATG,-0.0679 ± 0.044
14,ATGTACGC,-0.112 ± 0.0071
15,CTGACTCC,-0.143 ± 0.047
16,GCACGGTA,-0.0373 ± 0.034
17,CTCTTAAC,-0.115 ± 0.062
18,ACGAGAAC,0.0117 ± 0.058
19,ACCTGATC,0.0528 ± 0.11
20,TATCAAGA,-0.184 ± 0.07
21,AACGCTTG,0.134 ± 0.018
22,TGTATAAA,-0.0627 ± 0.098
23,AAACCCTC,-0.06053 ± 0.00052
24,ACAGAACC,-0.0988 ± 0.0082
25,TACTATAA,-0.154 ± 0.066

row,Sequence,PBM E-score of 8-mer
1,CAGCAACC,0.013 ± 0.0026
2,CGAGAGCG,0.187 ± 0.0052
3,AACGATGA,-0.141 ± 0.014
4,GTTTACGA,0.0331 ± 0.0092
5,ACCCATAT,0.0957 ± 0.013
6,ACTCGGAG,0.0452 ± 0.029
7,CCGCTCCG,-0.262 ± 0.032
8,CAGGCGCG,0.3152 ± 0.00098
9,AGTTCCTA,-0.000805 ± 0.035
10,GCCATGGC,-0.312 ± 0.041
11,ACAGAAGC,-0.0717 ± 0.045
12,CTCCCAGA,-0.0343 ± 0.073
13,AGCACCCA,0.193 ± 0.068
14,ATACGAAC,-0.198 ± 0.016
15,GAGGGGGA,-0.131 ± 0.032
16,GCCTGGGA,-0.179 ± 0.0051
17,ACTGATCG,-0.0574 ± 0.0033
18,ACGGCAGA,0.05 ± 0.074
19,CATCGAAC,-0.0846 ± 0.014
20,AAACTACA,0.047 ± 0.018
21,ATCATGTG,-0.0614 ± 0.022
22,AACTTAGT,-0.0288 ± 0.05
23,ATAATGCG,0.0597 ± 0.019
24,GGCTCCCC,-0.236 ± 0.037
25,CGGGATAC,0.055 ± 0.02

row,Sequence,PBM E-score of 8-mer
1,AATGAGAA,-0.206 ± 0.07
2,CCTGTACC,-0.284 ± 0.025
3,CCGACAAC,0.187 ± 0.0075
4,CCTGTCAC,0.3665 ± 0.0036
5,ACCCACCT,0.0206 ± 0.039
6,AGTCGAAT,-0.207 ± 0.0076
7,AACCGTTC,0.114 ± 0.021
8,AGGTGGGC,-0.0782 ± 0.065
9,CCCGAGGG,-0.251 ± 0.11
10,GTGAAGTA,0.227 ± 0.034
11,TATAACAA,0.0224 ± 0.16
12,ATTTCGTC,-0.02 ± 0.062
13,ATTGCACA,0.0993 ± 0.033
14,CGCACGAC,0.0703 ± 0.011
15,CGGGGAGC,-0.154 ± 0.083
16,GAGAAGTA,-0.0377 ± 0.023
17,ACGCACAC,0.148 ± 0.083
18,AGTGTGAT,0.463 ± 0.0063
19,ATAAGCGA,-0.0867 ± 0.036
20,CGTCACAG,0.243 ± 0.014
21,ATGCCCAA,-0.143 ± 0.026
22,ACGCGATC,0.15 ± 0.026
23,GGCTTCAC,0.142 ± 0.014
24,GCCGATGA,-0.0983 ± 0.00081
25,CGAGGACA,-0.02 ± 0.014

row,Sequence,PBM E-score of 8-mer
1,AGTCTGAT,-0.405 ± 0.053
2,GAGACACC,0.357 ± 0.015
3,CATATAGA,-0.316 ± 0.055
4,ATCTGGTG,-0.0313 ± 0.047
5,CTAAACGA,-0.0486 ± 0.072
6,CTTCTCGA,-0.0103 ± 0.016
7,GACCTAAC,-0.00518 ± 0.0072
8,AAGTGTGT,0.34 ± 0.03
9,GGAAAGGA,-0.274 ± 0.021
10,AACGCCGG,0.0667 ± 0.0076
11,CGTCTATA,0.00289 ± 0.038
12,ACAGTAGT,0.0366 ± 0.0051
13,GCGTAGAA,-0.234 ± 0.028
14,CACGACCC,-0.0498 ± 0.00078
15,ACTGTGTG,0.264 ± 0.021
16,ATTTTTAC,0.00341 ± 0.1
17,AACCTAGT,-0.134 ± 0.038
18,ATGTTGTA,-0.0136 ± 0.035
19,AGCTGCTG,-0.0211 ± 0.086
20,CCGCCGGC,-0.0765 ± 0.057
21,CCGTCAGA,-0.193 ± 0.059
22,ACACAAAA,0.15 ± 0.021
23,CTTTCCCC,-0.0069 ± 0.077
24,ACTGAAAC,-0.0158 ± 0.016
25,ATCTGCTA,0.201 ± 0.051

row,Sequence,PBM E-score of 8-mer
1,AATGCGCG,0.0169 ± 0.054
2,GTGGTAGA,0.151 ± 0.026
3,CTCGCGCA,0.191 ± 0.024
4,ACACGCCT,0.251 ± 0.031
5,CAAGGCGG,-0.0298 ± 0.071
6,AGAAGCTA,-0.109 ± 0.0026
7,ACGTTGAC,0.299 ± 0.061
8,AATGGCAC,0.25 ± 0.027
9,GTCCCCAA,-0.071 ± 0.1
10,GCAGGTAA,-0.0867 ± 0.05
11,ATACCCAA,-0.234 ± 0.019
12,CCGTCGAC,0.12732 ± 3.5e-05
13,GCTGATAC,-0.0685 ± 0.018
14,CCCCAGGA,-0.0535 ± 0.052
15,AATGACCG,-0.0548 ± 0.032
16,ACCGGTGG,-0.072 ± 0.082
17,CCACAGAC,-0.14 ± 0.13
18,GGACTCAC,-0.241 ± 0.066
19,GAGGTCAC,0.232 ± 0.0028
20,CGACCCCC,-0.174 ± 0.039
21,ATGAACCG,0.0251 ± 0.004
22,ACGAAAGC,-0.0266 ± 0.078
23,AATCGTCG,-0.0199 ± 0.039
24,ACCTTAAG,0.106 ± 0.014
25,CCCCGAAA,-0.169 ± 0.017

row,Sequence,PBM E-score of 8-mer
1,TAATCACA,0.202 ± 0.026
2,CATAAGAG,-0.275 ± 0.024
3,AGAAGCTC,-0.0644 ± 0.03
4,AACGGTGG,-0.11 ± 0.045
5,GGAGTGCC,0.0345 ± 0.12
6,AGAGAGGG,-0.123 ± 0.025
7,CATGCAGC,-0.0211 ± 0.03
8,AAAGCTGC,0.171 ± 0.018
9,ATGCCTCG,-0.00755 ± 0.087
10,ACCGGGCA,-0.272 ± 0.0037
11,GTCAATCA,-0.0721 ± 0.032
12,AAATGTCT,-0.055 ± 0.14
13,AATGAGCC,-0.162 ± 0.056
14,ATCTTCCC,-0.114 ± 0.04
15,CCAAGATC,-0.0545 ± 0.034
16,AACCGATG,-0.0661 ± 0.043
17,GCCCGACA,0.24 ± 0.041
18,ACGATGAC,0.0176 ± 0.038
19,CGCGTCCG,0.108 ± 0.0082
20,ACTGCACG,-0.149 ± 0.031
21,CGCTCGTC,-0.284 ± 0.084
22,GATGATTA,0.123 ± 0.025
23,ACGTTTCC,0.0226 ± 0.0023
24,CGTCCGCA,0.0822 ± 0.046
25,CGCTCCAA,0.0514 ± 0.082

row,Sequence,PBM E-score of 8-mer
1,CGGAGTTA,-0.101 ± 0.024
2,GTTCTAAA,-0.324 ± 0.077
3,TCGAGGAA,-0.167 ± 0.011
4,CCCCGAGA,-0.141 ± 0.013
5,GCCTACAA,0.0283 ± 0.07
6,AACACTTG,0.408 ± 0.0044
7,CACACTTA,0.4445 ± 0.0038
8,GAGGAGTA,0.178 ± 0.028
9,GCAACGTA,-0.126 ± 0.06
10,AGTGGCTG,-0.029 ± 0.025
11,AGGCCTGA,-0.268 ± 0.039
12,CGATCCAA,4.5e-05 ± 0.057
13,ATCGAATG,-0.135 ± 0.0086
14,CTATGTAA,-0.111 ± 0.035
15,AGCACTAT,0.161 ± 0.018
16,CTAAAAGA,-0.169 ± 0.033
17,ACAACATC,0.142 ± 0.021
18,TATATTGA,-0.0295 ± 0.026
19,ATCCGATC,-0.18 ± 0.031
20,GCTTATCA,0.0322 ± 0.011
21,AATAACGC,0.1137 ± 0.00097
22,GGTGAACC,-0.0178 ± 0.006
